Some of the results follow. Interaction screen of human proteins with wild-type SARS-CoV-2 proteins by split-DHFR complementation in yeast, 1 µg/mL methotrexate. Value = fitness of the pair (three or more lineages) minus that of the viral protein without a human partner, on a scale set by negative (0) and fused positive (1) controls, mean of up to three cultures; higher = more likely to interact. Active = false discovery rate below 0.05 (one-sided t-test) in at least one culture. Nearly all pairs are not hits, and differences among them are mostly noise (correlation between cultures about 0.3); most hits were seen in one culture only. Human sequences are the Swiss-Prot entries looked up by gene name; the clone may be another isoform. NSP2 values were corrected by the authors for a growth advantage. Listed are human proteins with a hit and a random twelfth of the others.
Experiments:
Assay in all cases: yeast fitness gain over the viral ORF with no human partner (scaled fitness); higher = more likely to interact
SARS-CoV-2 E = molecular target: SARS-CoV-2 E
Protocol: (§1)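 Split mouse DHFR complementation in pooled diploid yeast: human ORFeome clones carry one fragment and viral ORFs the other; barcoded lineages compete in 1 µg/mL methotrexate and fitness is read by barcode sequencing in up to three cultures.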

SARS-CoV-2 M = molecular target: SARS-CoV-2 M
Protocol: as §1

SARS-CoV-2 NSP1 = molecular target: SARS-CoV-2 NSP1
Protocol: as §1

SARS-CoV-2 NSP10 = molecular target: SARS-CoV-2 NSP10
Protocol: as §1

SARS-CoV-2 NSP12 = molecular target: SARS-CoV-2 NSP12
Protocol: as §1

SARS-CoV-2 NSP13 = molecular target: SARS-CoV-2 NSP13
Protocol: as §1

SARS-CoV-2 NSP14 = molecular target: SARS-CoV-2 NSP14
Protocol: as §1

SARS-CoV-2 NSP15 = molecular target: SARS-CoV-2 NSP15
Protocol: as §1

SARS-CoV-2 NSP16 = molecular target: SARS-CoV-2 NSP16
Protocol: as §1

SARS-CoV-2 NSP2 = molecular target: SARS-CoV-2 NSP2
Protocol: as §1

SARS-CoV-2 NSP4 = molecular target: SARS-CoV-2 NSP4
Protocol: as §1

SARS-CoV-2 NSP5 = molecular target: SARS-CoV-2 NSP5
Protocol: as §1

SARS-CoV-2 NSP6 = molecular target: SARS-CoV-2 NSP6
Protocol: as §1

SARS-CoV-2 NSP7 = molecular target: SARS-CoV-2 NSP7
Protocol: as §1

SARS-CoV-2 NSP8 = molecular target: SARS-CoV-2 NSP8
Protocol: as §1

SARS-CoV-2 NSP9 = molecular target: SARS-CoV-2 NSP9
Protocol: as §1

SARS-CoV-2 ORF10 = molecular target: SARS-CoV-2 ORF10
Protocol: as §1

SARS-CoV-2 ORF3A = molecular target: SARS-CoV-2 ORF3A
Protocol: as §1

SARS-CoV-2 ORF3B = molecular target: SARS-CoV-2 ORF3B
Protocol: as §1

SARS-CoV-2 ORF6 = molecular target: SARS-CoV-2 ORF6
Protocol: as §1

SARS-CoV-2 ORF7A = molecular target: SARS-CoV-2 ORF7A
Protocol: as §1

SARS-CoV-2 ORF7B = molecular target: SARS-CoV-2 ORF7B
Protocol: as §1

SARS-CoV-2 ORF8 = molecular target: SARS-CoV-2 ORF8
Protocol: as §1

SARS-CoV-2 ORF9B = molecular target: SARS-CoV-2 ORF9B
Protocol: as §1

[1] = molecular target: SARS-CoV-2 ORF9Bwu (the 73-codon ORF)
Protocol: as §1

SARS-CoV-2 S = molecular target: SARS-CoV-2 S
Protocol: as §1

SARS-CoV-2 N = molecular target: SARS-CoV-2 N
Protocol: as §1

Measured: yeast fitness gain

B1: COA5, Q86WW8 (protein)
chain: MPKYYEDKPQGGACAGLKEDLGACLLQSDCVVQEGKSPRQCLKEGYCNSLKYAFFECKRSVLDNRARFRGRKGY
inactive: SARS-CoV-2 E 0.0397 | SARS-CoV-2 M -0.0204 | SARS-CoV-2 NSP1 = -0.147 | SARS-CoV-2 NSP10 = 0.0305 | SARS-CoV-2 NSP12 = 0.0555 | SARS-CoV-2 NSP13 = 0.0344 | SARS-CoV-2 NSP14 = 0.151 | SARS-CoV-2 NSP15 = -0.0135 | SARS-CoV-2 NSP16 = 0.0438 | SARS-CoV-2 NSP2 = -0.131 | SARS-CoV-2 NSP4 = 0.0685 | SARS-CoV-2 NSP5 = 0.00897 | SARS-CoV-2 NSP6 = -0.0384 | SARS-CoV-2 NSP7 = -0.0236 | SARS-CoV-2 NSP8 = 0.032 | SARS-CoV-2 NSP9 = -0.0565 | SARS-CoV-2 ORF10 = 0.091 | SARS-CoV-2 ORF3A 0.00298 | SARS-CoV-2 ORF3B 0.0281 | SARS-CoV-2 ORF6 = 0.0263 | SARS-CoV-2 ORF7A -0.0825 | SARS-CoV-2 ORF7B -0.00608 | SARS-CoV-2 ORF8 = -0.00416 | SARS-CoV-2 ORF9B 0.0261 | [1] -0.0546 | SARS-CoV-2 S 0.0285

B2: GAR1, Q9NY12 (protein)
chain: MSFRGGGRGGFNRGGGGGGFNRGGSSNHFRGGGGGGGGGNFRGGGRGGFGRGGGRGGFNKGQDQGPPERVVLLGEFLHPCEDDIVCKCTTDENKVPYFNAPVYLENKEQIGKVDEIFGQLRDFYFSVKLSENMKASSFKKLQKFYIDPYKLLPLQRFLPRPPGEKGPPRGGGRGGRGGGRGGGGRGGGRGGGFRGGRGGGGGGFRGGRGGGFRGRGH
inactive: SARS-CoV-2 E 0.0207 | SARS-CoV-2 M 0.0803 | SARS-CoV-2 N 0.117 | SARS-CoV-2 NSP1 = 0.0352 | SARS-CoV-2 NSP10 = 0.0214 | SARS-CoV-2 NSP12 = -0.0433 | SARS-CoV-2 NSP13 = 0.0221 | SARS-CoV-2 NSP14 = 0.149 | SARS-CoV-2 NSP15 = -0.048 | SARS-CoV-2 NSP16 = -0.0298 | SARS-CoV-2 NSP2 = -0.218 | SARS-CoV-2 NSP4 = 0.14 | SARS-CoV-2 NSP5 = 0.0211 | SARS-CoV-2 NSP6 = -0.0911 | SARS-CoV-2 NSP7 = 0.0354 | SARS-CoV-2 NSP8 = -0.13 | SARS-CoV-2 NSP9 = 0.147 | SARS-CoV-2 ORF10 = -0.117 | SARS-CoV-2 ORF3A -0.11 | SARS-CoV-2 ORF3B -0.0393 | SARS-CoV-2 ORF6 = 0.043 | SARS-CoV-2 ORF7A -0.108 | SARS-CoV-2 ORF7B 0.00293 | SARS-CoV-2 ORF8 = -0.0345 | SARS-CoV-2 ORF9B 0.0931 | [1] 0.0346 | SARS-CoV-2 S 0.123

B3: HLA-DOB, P13765 (protein)
chain: MGSGWVPWVVALLVNLTRLDSSMTQGTDSPEDFVIQAKADCYFTNGTEKVQFVVRFIFNLEEYVRFDSDVGMFVALTKLGQPDAEQWNSRLDLLERSRQAVDGVCRHNYRLGAPFTVGRKVQPEVTVYPERTPLLHQHNLLHCSVTGFYPGDIKIKWFLNGQEERAGVMSTGPIRNGDWTFQTVVMLEMTPELGHVYTCLVDHSSLLSPVSVEWRAQSEYSWRKMLSGIAAFLLGLIFLLVGIVIQLRAQKGYVRTQMSGNEVSRAVLLPQSC
inactive: SARS-CoV-2 E 0.0202 | SARS-CoV-2 M -0.0308 | SARS-CoV-2 N 0.021 | SARS-CoV-2 NSP1 = -0.0179 | SARS-CoV-2 NSP10 = 0.000708 | SARS-CoV-2 NSP12 = 0.0308 | SARS-CoV-2 NSP13 = 0.0176 | SARS-CoV-2 NSP14 = -0.033 | SARS-CoV-2 NSP15 = 0.0463 | SARS-CoV-2 NSP16 = 0.107 | SARS-CoV-2 NSP2 = -0.162 | SARS-CoV-2 NSP4 = -0.127 | SARS-CoV-2 NSP5 = 0.026 | SARS-CoV-2 NSP6 = 0.0599 | SARS-CoV-2 NSP7 = -0.02 | SARS-CoV-2 NSP8 = -0.00401 | SARS-CoV-2 NSP9 = -0.0829 | SARS-CoV-2 ORF10 = 0.00165 | SARS-CoV-2 ORF3A -0.00466 | SARS-CoV-2 ORF3B -0.0179 | SARS-CoV-2 ORF6 = 0.0124 | SARS-CoV-2 ORF7A 0.0787 | SARS-CoV-2 ORF7B -0.0175 | SARS-CoV-2 ORF8 = -0.0183 | SARS-CoV-2 ORF9B 0.0106 | [1] 0.0739 | SARS-CoV-2 S 0.0218

B4: CXCL14, O95715 (protein)
chain: MSLLPRRAPPVSMRLLAAALLLLLLALYTARVDGSKCKCSRKGPKIRYSDVKKLEMKPKYPHCEEKMVIITTKSVSRYRGQEHCLHPKLQSTKRFIKWYNAWNEKRRVYEE
inactive: SARS-CoV-2 E -0.0708 | SARS-CoV-2 M 0.0615 | SARS-CoV-2 NSP1 = -0.0414 | SARS-CoV-2 NSP10 = 0.0488 | SARS-CoV-2 NSP12 = -0.129 | SARS-CoV-2 NSP13 = -0.0931 | SARS-CoV-2 NSP15 = -0.444 | SARS-CoV-2 NSP16 = 0.0749 | SARS-CoV-2 NSP2 = -0.103 | SARS-CoV-2 NSP5 = -0.00845 | SARS-CoV-2 NSP6 = -0.0456 | SARS-CoV-2 NSP7 = 0.0391 | SARS-CoV-2 NSP8 = 0.0842 | SARS-CoV-2 NSP9 = 0.03 | SARS-CoV-2 ORF10 = -0.0199 | SARS-CoV-2 ORF3A -0.0556 | SARS-CoV-2 ORF3B -0.00783 | SARS-CoV-2 ORF6 = 0.00441 | SARS-CoV-2 ORF7A 0.0487 | SARS-CoV-2 ORF7B 0.0126 | SARS-CoV-2 ORF8 = -0.0112 | SARS-CoV-2 ORF9B -0.0449 | [1] 0.106 | SARS-CoV-2 S 0.0335

Source: the supplement of paper PMC11741623
